Measurements taken from the supplement of paper PMC9588766.
Counter-ions that a name gives are not always drawn. ± gives the standard deviation of the averaged measurements. The full ranking holds about 2,000 compounds; the median of “cell viability relative to DMSO control (compound alone)” is about 0.98, and the lowest 2% start at about 0.23. The list shows a part of the results.

tested on: PDC-DUC18828; assay: cell viability relative to DMSO control (compound alone) (fraction); PDC-DUC18828 is a patient-derived cholangiocarcinoma cell line; higher = less growth inhibition; conditions: 1 µM; 72 h
Description: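 Selleck Bioactive library screen in the patient-derived FGFR2-G3BP2 fusion-positive ICC cell line PDC-DUC18828 (500 cells/well). Each compound was tested at 1 uM alone, in triplicate, for 72 h. Viability was read by CellTiter-Glo and normalised to plate DMSO controls.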

First: NC1=N[C@@](c2cccc(-c3cncnc3)c2)(c2ccnc(C(F)F)c2)c2cccc(F)c21
Second: COc1ncc(-c2ccc3nccc(-c4ccnnc4)c3c2)cc1NS(=O)(=O)c1ccc(F)cc1F
The cell viability of the first is higher: 0.92 ± 0.017 for the first, 0.272 ± 0.0043 for the second.

First: CC[C@@H]([C@H](C)O)n1ncn(-c2ccc(N3CCN(c4ccc(OC[C@@H]5CO[C@@](Cn6cncn6)(c6ccc(F)cc6F)C5)cc4)CC3)cc2)c1=O [Posaconazole]
Second: O=C1[C@H](CC[C@H](O)c2ccc(F)cc2)[C@@H](c2ccc(O)cc2)N1c1ccc(F)cc1 [Ezetimibe]
The cell viability of the first is lower: 0.935 ± 0.07 for the first, 1.07 ± 0.029 for the second.

`O=C(O)c1ccccc1` [Benzoic Acid] and `CC(C(=O)O)c1ccc(C(=O)c2cccs2)cc1` (stereo not given) [Suprofen] are the same in cell viability: 1.03 ± 0.05 for the first, 1.03 ± 0.043 for the second.

`CC(C)[C@H](N)C(=O)OCC(CO)OCn1cnc2c(=O)[nH]c(N)nc21` (stereo not given in full) [Valganciclovir HCl] and `COC(=O)C1=C(C)NC(C)=C(C(=O)OCC(C)C)C1c1ccccc1[N+](=O)[O-]` (stereo not given) [Nisoldipine] are within error of each other in cell viability: 1.02 ± 0.025 for the first, 1.06 ± 0.064 for the second.

`O=C(c1ccc(OCCCc2c[nH]cn2)cc1)C1CC1` [Ciproxifan] and `CCOc1ccc(NC(C)=O)cc1` [Phenacetin] are within error of each other in cell viability: 1.03 ± 0.056 for the first, 1.04 ± 0.032 for the second.

`CN1CCC[C@@H]1CCO[C@](C)(c1ccccc1)c1ccc(Cl)cc1` [Clemastine Fumarate] and `OC(CCCN1CCCCC1)(c1ccccc1)c1ccccc1` [Diphenidol HCl] are within error of each other in cell viability: 1 ± 0.026 for the first, 1.04 ± 0.038 for the second.

Compared with `CN1CCN(c2nc(C3=C(c4c[nH]c5ccccc45)C(=O)NC3=O)c3ccccc3n2)CC1` [Sotrastaurin], `Cc1cc(Nc2cc(N3CCN(C)CC3)nc(/C=C/c3ccccc3)n2)n[nH]1` is lower in cell viability: 1.06 ± 0.043 for the first, 0.459 ± 0.034 for the second.

`COc1cc2ncnc(Nc3ccc(F)c(Cl)c3)c2cc1OCCCN1CCOCC1` [Gefitinib (ZD1839)] and `COc1cc2ncnc(Oc3ccc(CC(=O)Nc4cnn(C(C)C)c4)cc3)c2cc1OC` are within error of each other in cell viability: 0.978 ± 0.02 for the first, 0.913 ± 0.048 for the second.

`CN(C)CCCCC(=O)Nc1ccc(NC(=S)NC(=O)c2ccc(C(C)(C)C)cc2)cc1` [Tenovin-6] and `CCCCNc1ccc(C(=O)OCCN(C)C)cc1` [Tetracaine HCl] are within error of each other in cell viability: 0.919 ± 0.049 for the first, 0.971 ± 0.02 for the second.

Going from `C=C(c1ccc(C(=O)O)cc1)c1cc2c(cc1C)C(C)(C)CCC2(C)C` [Bexarotene] to `C/C(=C\c1ccc(C(=O)O)cc1)c1ccc2c(c1)C(C)(C)CCC2(C)C` [TTNPB (Arotinoid Acid)], the cell viability falls from 1.07 ± 0.078 to 0.863 ± 0.06.

First: CC[N+](CC)(CC)CCOc1cccc(OCC[N+](CC)(CC)CC)c1OCC[N+](CC)(CC)CC [Gallamine Triethiodide]
Second: CCN(CCCOc1ccc2c(Nc3cc(CC(=O)Nc4cccc(F)c4)[nH]n3)ncnc2c1)CCOP(=O)(O)O [Barasertib (AZD1152-HQPA)]
The cell viability of the first is higher: 1 ± 0.048 for the first, 0.803 ± 0.06 for the second.

Going from `Cc1ccccc1N=Nc1ccc(NC(=O)c2ccnn2C)c(C)c1` to `Cn1cc(-c2ccc(S(=O)(=O)n3ccc(/C=C/C(=O)Nc4ccccc4N)c3)cc2)cn1`, the cell viability falls from 0.99 ± 0.016 to 0.496 ± 0.03.

Going from `Cc1c[nH]c(/C=C2\C(=O)Nc3ccccc32)c1CCC(=O)O` to `CCc1oc2ccccc2c1C(=O)c1cc(Br)c(O)c(Br)c1` [Benzbromarone], the cell viability rises from 0.934 ± 0.021 to 1.02 ± 0.049.

`CC/C(=C(\c1ccccc1)c1ccc(OCCN(C)C)cc1)c1ccccc1` [Tamoxifen Citrate] and `CCN(CC)CCOc1ccc(C(=C(Cl)c2ccccc2)c2ccccc2)cc1` [Clomifene citrate] are within error of each other in cell viability: 0.945 ± 0.034 for the first, 0.968 ± 0.021 for the second.

Compared with `O=c1c(O)c(-c2ccc(O)c(O)c2)oc2cc(O)cc(O)c12` [Quercetin Dihydrate], `CN1CCC(NC(=O)c2cc(-c3c(O)cc(O)cc3Oc3ccc([N+](=O)[O-])cc3)on2)CC1` is lower in cell viability: 0.936 ± 0.061 for the first, 0.343 ± 0.029 for the second.

`O=c1c(O)c(-c2ccc(O)c(O)c2)oc2cc(O)cc(O)c12` [Quercetin] and `CN(C)[C@@H]1C(O)=C(C(N)=O)C(=O)[C@@]2(O)C(O)=C3C(=O)c4c(O)cccc4[C@@](C)(O)[C@H]3[C@H](O)[C@@H]12` [Oxytetracycline (Terramycin)] are within error of each other in cell viability: 0.957 ± 0.034 for the first, 0.931 ± 0.012 for the second.

`COc1ccc(C2=N[C@H](c3ccc(Cl)cc3)[C@H](c3ccc(Cl)cc3)N2C(=O)N2CCNC(=O)C2)c(OC(C)C)c1` [Nutlin-3b] and `O=C1C(O)=C([C@H]2CC[C@H](c3ccc(Cl)cc3)CC2)C(=O)c2ccccc21` [Atovaquone] are within error of each other in cell viability: 0.986 ± 0.062 for the first, 1.05 ± 0.038 for the second.

Compared with `Cc1cnc(C(=O)O)c[n+]1[O-]` [Acipimox], `Oc1cc(O)c(Cl)cn1` [Gimeracil] is higher in cell viability: 0.917 ± 0.019 for the first, 1 ± 0.026 for the second.

First: O=C(c1cncc(Br)c1)N1CCC(N2CCCC2)CC1
Second: O=C1CCc2ccc(OCCCCN3CCN(c4cccc(Cl)c4Cl)CC3)cc2N1 [Aripiprazole]
The cell viability of the first is lower: 0.94 ± 0.095 for the first, 1.09 ± 0.021 for the second.

First: O=C(Nc1ccc([N+](=O)[O-])cc1O)Nc1ccccc1Br
Second: Cc1ccc([N+](=O)[O-])cc1S(=O)(=O)N(C)/N=C/c1cnc2ccc(Br)cn12
The cell viability of the first is lower: 0.559 ± 0.035 for the first, 0.958 ± 0.017 for the second.

`O=C(O)c1cc(I)ccc1NC(=O)[C@H](Cc1ccccc1)NCc1ccccc1` and `OC(CN1CCN(c2cccc(Cl)c2)CC1)C(c1ccccc1)c1ccccc1` (stereo not given) are within error of each other in cell viability: 1.04 ± 0.061 for the first, 0.96 ± 0.028 for the second.

Going from `CCN1CCN(Cc2ccc(Nc3ncc(F)c(-c4cc(F)c5nc(C)n(C(C)C)c5c4)n3)nc2)CC1` to `COc1ccc(CN2CCN(C(c3ccc(F)cc3)c3ccc(F)cc3)CC2)c(OC)c1OC` [Lomerizine HCl], the cell viability rises from 0.684 ± 0.012 to 1.02 ± 0.055.

First: COCCc1ccc(OCC(O)CNC(C)C)cc1 (stereo not given) [Metoprolol Tartrate]
Second: CC(C)Cc1ccc(C(C)C(=O)O)cc1 (stereo not given) [Ibuprofen]
The cell viability of the first is lower: 0.895 ± 0.066 for the first, 1.08 ± 0.034 for the second.

Going from `Nc1ncnc2c1C(=O)N(c1ccc([C@H]3CC[C@H](CC(=O)O)CC3)cc1)CCO2` to `Cc1cnc(C(=O)NCCc2ccc(S(=O)(=O)NC(=O)NC3CCCCC3)cc2)cn1` [Glipizide], the cell viability rises from 0.9737 ± 0.0084 to 1.08 ± 0.046.

`Cc1cc(-c2ncc(CC(=O)Nc3ccc(-c4cnccn4)cn3)cc2C)ccn1` and `Cc1cc(-c2ccc(CC(=O)Nc3ccc(-c4cccnc4)cc3)cc2)ccn1` are within error of each other in cell viability: 1.01 ± 0.018 for the first, 1.03 ± 0.012 for the second.

First: c1cc(-c2cnn3cc(-c4ccc(OCCN5CCCCC5)cc4)cnc23)ccn1 [Dorsomorphin (Compound C)]
Second: COCCOc1ccc2c(c1)ncn2-c1ccc2cccc(N3CCC(N)CC3)c2n1
The cell viability of the first is lower: 0.972 ± 0.05 for the first, 1.09 ± 0.025 for the second.

`CN1CCC(=C2c3ccccc3CCc3sccc32)CC1` [Pizotifen Malate] and `COc1ccc(C2CC(c3ccccc3)=NN2c2ccc(S(N)(=O)=O)cc2)cc1` (stereo not given) are within error of each other in cell viability: 0.995 ± 0.073 for the first, 0.991 ± 0.05 for the second.

Compared with `CCCCCOC(=O)Nc1nc(=O)n([C@@H]2O[C@H](C)[C@@H](O)[C@H]2O)cc1F` [Capecitabine], `CCCCCCCCCCCC1=C(O)C(=O)C=C(O)C1=O` [Embelin] is lower in cell viability: 1.06 ± 0.022 for the first, 0.92 ± 0.034 for the second.

`COc1c2ccoc2cc2oc(=O)ccc12` [Bergapten] and `COc1ccc(-c2ccc3c(N4CCOCC4)nc(N4C[C@@H](C)O[C@@H](C)C4)nc3n2)cc1CO` are within error of each other in cell viability: 0.955 ± 0.026 for the first, 0.934 ± 0.0096 for the second.

`CNCc1cc(-c2ccccc2F)n(S(=O)(=O)c2cccnc2)c1` and `CC1(C)CNc2cc(NC(=O)c3cccnc3NCc3ccncc3)ccc21` [Motesanib Diphosphate (AMG-706)] are within error of each other in cell viability: 1.04 ± 0.07 for the first, 0.976 ± 0.064 for the second.

Compared with `Cc1ccccc1C(OCCN(C)C)c1ccccc1` (stereo not given) [Orphenadrine Citrate], `CCN(CC)CCOC(=O)C(c1ccccc1)c1ccccc1` [Adiphenine HCl] is higher in cell viability: 0.971 ± 0.063 for the first, 1.1 ± 0.043 for the second.

`Cc1nn(C)c2c1C(c1ccc(C(F)(F)F)cc1)C(C#N)=C(N)O2` (stereo not given) and `Cc1nc(C#Cc2ccnc(Cl)c2)c(C)n1-c1ccc(OC(F)(F)F)cc1` are within error of each other in cell viability: 0.942 ± 0.0098 for the first, 0.906 ± 0.062 for the second.

Compared with `OC[C@H]1O[C@@H](c2ccc(Cl)c(Cc3ccc(O[C@H]4CCOC4)cc3)c2)[C@H](O)[C@@H](O)[C@@H]1O`, `CCCCCCCc1ccc(CCc2cccc(O)c2C(=O)O)cc1` is lower in cell viability: 1.03 ± 0.025 for the first, 0.936 ± 0.033 for the second.

`CN(C)c1cccc(-c2c3c(=O)n(-c4ccccc4Cl)[nH]c3cc(=O)n2C)c1` and `COC(=O)C1=C(C)NC(C)=C(C(=O)OCCN(C)Cc2ccccc2)C1c1cccc([N+](=O)[O-])c1` (stereo not given) [Nicardipine HCl] are within error of each other in cell viability: 0.952 ± 0.033 for the first, 0.996 ± 0.025 for the second.

`COc1ccc2cc(OCC3(C(=O)O)CN(C(=O)c4ccc(F)cc4)C3)ccc2c1` and `CC/C(=C(/CC)c1ccc(O)cc1)c1ccc(O)cc1` [Diethylstilbestrol] are within error of each other in cell viability: 0.954 ± 0.039 for the first, 1.01 ± 0.033 for the second.

`CC[C@@H]1/C=C(\C)C[C@H](C)C[C@H](OC)[C@H]2O[C@@](O)(C(=O)C(=O)N3CCCC[C@H]3C(=O)O[C@H](/C(C)=C/[C@@H]3CC[C@@H](O)[C@H](OC)C3)[C@H](C)[C@@H](O)CC1=O)[C@H](C)C[C@@H]2OC` [Ascomycin (FK520)] and `C[C@H]1[C@H](C)CC[C@]2(C(=O)O)CC[C@]3(C)C(=CC[C@@H]4[C@@]5(C)C[C@@H](O)[C@H](O)[C@@](C)(CO)[C@@H]5CC[C@]43C)[C@H]12` [Asiatic Acid] are within error of each other in cell viability: 0.979 ± 0.014 for the first, 1.03 ± 0.055 for the second.

First: CC1=C(/C=C/C(C)=C/C=C/C(C)=C\C(=O)O)C(C)(C)CCC1 [Isotretinoin]
Second: COc1cc(OC)c(/C=C/S(=O)(=O)Cc2ccc(OC)c(NCC(=O)O)c2)c(OC)c1
The cell viability of the first is higher: 0.943 ± 0.042 for the first, 0.268 ± 0.02 for the second.

`NC(N)=Nc1nc(CSCC/C(N)=N/S(N)(=O)=O)cs1` [Famotidine] and `CCCCCCCCCCCCc1ccc(S(=O)(=O)Nc2nncs2)cc1` are within error of each other in cell viability: 0.977 ± 0.039 for the first, 0.987 ± 0.067 for the second.

First: CN(C)[C@@H]1C(O)=C(C(N)=O)C(=O)[C@@]2(O)C(O)=C3C(=O)c4c(O)cccc4[C@@](C)(O)[C@H]3[C@H](O)[C@@H]12 [Oxytetracycline Dihydrate]
Second: Cc1noc(C)c1-c1ccc(-c2cc(C(N)=O)c(NC(N)=O)s2)c(O[C@H]2CCNC2)c1
The cell viability of the first is higher: 1.07 ± 0.042 for the first, 0.97 ± 0.038 for the second.

Compared with `CN1CCN(c2c(F)cc3c(=O)c(C(=O)O)cn4c3c2OCN4C)CC1` [Marbofloxacin], `CCOC(=O)c1ccc(N)cc1` [Benzocaine] is lower in cell viability: 1.12 ± 0.036 for the first, 1 ± 0.027 for the second.
